Measured values reported in PMC12820563.
Some of the results follow. The list includes weakly bound sequences.

biological target: T1, MBP-FoxP3dN (UniProt Q99JB6); assay: PD-seq (MBP pull-down with sequencing); settings: 20 mM Tris-HCl pH 7.5, 100 mM NaCl, 1.5 mM MgCl2, 0.4 uM protein, 0.1 uM dsDNA library, 30 min, room temperature, amylose pull-down; high values mean tight binding; double strand, one strand shown
T1 sequence: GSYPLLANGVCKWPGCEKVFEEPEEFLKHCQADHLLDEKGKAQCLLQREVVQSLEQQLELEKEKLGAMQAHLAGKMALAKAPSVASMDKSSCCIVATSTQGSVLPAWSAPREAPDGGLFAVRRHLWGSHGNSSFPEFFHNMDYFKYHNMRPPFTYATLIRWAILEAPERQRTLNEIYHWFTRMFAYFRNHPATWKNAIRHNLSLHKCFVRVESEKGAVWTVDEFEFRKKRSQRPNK

Sequence | binding signal (RPM ratio (pull-down/input))
GATGATTGTTCTCCCAGCTGATGAATTGAACGACTCGAGTAAACAAATTTTCCTAATCTTTCTGTTCAAGCGCCATCTAC | 0.321
GATGATTGTTCTCCCAGCTGATGAATTCCTTCACTCGAGTAAACAAATTTTCCTAATCTTTCTGTTCAAGCGCCATCTAC | 0.293
GATGATTGTTCTCCCAGCTGATGAATTAATTATGTCGAGTAAACAAATTTTCCTAATCTTTCTGTTCAAGCGCCATCTAC | 1.89
GATGATTGTTCTCCCAGCTGATGAATTCCGATGATCGAGTAAACAAATTTTCCTAATCTTTCTGTTCAAGCGCCATCTAC | 0.626
GATGATTGTTCTCCCAGCTGATGAATTCTCGGTCTCGAGTAAACAAATTTTCCTAATCTTTCTGTTCAAGCGCCATCTAC | 0.276
GATGATTGTTCTCCCAGCTGATGAATTGGACGTTTCGAGTAAACAAATTTTCCTAATCTTTCTGTTCAAGCGCCATCTAC | 0.459
GATGATTGTTCTCCCAGCTGATGAATTCATTCGTTCGAGTAAACAAATTTTCCTAATCTTTCTGTTCAAGCGCCATCTAC | 0.344
GATGATTGTTCTCCCAGCTGATGAATTGGATATTTCGAGTAAACAAATTTTCCTAATCTTTCTGTTCAAGCGCCATCTAC | 0.826
GATGATTGTTCTCCCAGCTGATGAATTTGACATCTCGAGTAAACAAATTTTCCTAATCTTTCTGTTCAAGCGCCATCTAC | 1.91
GATGATTGTTCTCCCAGCTGATGAATTTGCCTCATCGAGTAAACAAATTTTCCTAATCTTTCTGTTCAAGCGCCATCTAC | 1.56
GATGATTGTTCTCCCAGCTGATGAATTATCCCGTTCGAGTAAACAAATTTTCCTAATCTTTCTGTTCAAGCGCCATCTAC | 0.326
GATGATTGTTCTCCCAGCTGATGAATTGACCCGCTCGAGTAAACAAATTTTCCTAATCTTTCTGTTCAAGCGCCATCTAC | 0.232
GATGATTGTTCTCCCAGCTGATGAATTATGCACCTCGAGTAAACAAATTTTCCTAATCTTTCTGTTCAAGCGCCATCTAC | 2.61
GATGATTGTTCTCCCAGCTGATGAATTAATCCTTTCGAGTAAACAAATTTTCCTAATCTTTCTGTTCAAGCGCCATCTAC | 0.3
GATGATTGTTCTCCCAGCTGATGAATTCGGCGTTTCGAGTAAACAAATTTTCCTAATCTTTCTGTTCAAGCGCCATCTAC | 3.28
GATGATTGTTCTCCCAGCTGATGAATTGATTTGTTCGAGTAAACAAATTTTCCTAATCTTTCTGTTCAAGCGCCATCTAC | 3.85
GATGATTGTTCTCCCAGCTGATGAATTGTAAAGATCGAGTAAACAAATTTTCCTAATCTTTCTGTTCAAGCGCCATCTAC | 0.29
GATGATTGTTCTCCCAGCTGATGAATTATCTAGCTCGAGTAAACAAATTTTCCTAATCTTTCTGTTCAAGCGCCATCTAC | 0.241
GATGATTGTTCTCCCAGCTGATGAATTCAAAGTGTCGAGTAAACAAATTTTCCTAATCTTTCTGTTCAAGCGCCATCTAC | 0.349
GATGATTGTTCTCCCAGCTGATGAATTGCCGGTATCGAGTAAACAAATTTTCCTAATCTTTCTGTTCAAGCGCCATCTAC | 0.68
GATGATTGTTCTCCCAGCTGATGAATTAGTTGGTTCGAGTAAACAAATTTTCCTAATCTTTCTGTTCAAGCGCCATCTAC | 5.37

Sequence | binding signal (RPM ratio (pull-down/input))
GATGATTGTTCTCCCAGCTGATGAATTCTCGCCATCGAGTAAACAAATTTTCCTAATCTTTCTGTTCAAGCGCCATCTAC | 1.86
GATGATTGTTCTCCCAGCTGATGAATTAAACGAGTCGAGTAAACAAATTTTCCTAATCTTTCTGTTCAAGCGCCATCTAC | 0.265
GATGATTGTTCTCCCAGCTGATGAATTAGGCATTTCGAGTAAACAAATTTTCCTAATCTTTCTGTTCAAGCGCCATCTAC | 6.35
GATGATTGTTCTCCCAGCTGATGAATTTGAAGGATCGAGTAAACAAATTTTCCTAATCTTTCTGTTCAAGCGCCATCTAC | 0.22
GATGATTGTTCTCCCAGCTGATGAATTAATGCGATCGAGTAAACAAATTTTCCTAATCTTTCTGTTCAAGCGCCATCTAC | 1.87
GATGATTGTTCTCCCAGCTGATGAATTAACAGACTCGAGTAAACAAATTTTCCTAATCTTTCTGTTCAAGCGCCATCTAC | 0.261
GATGATTGTTCTCCCAGCTGATGAATTGTGTAGGTCGAGTAAACAAATTTTCCTAATCTTTCTGTTCAAGCGCCATCTAC | 1.87
GATGATTGTTCTCCCAGCTGATGAATTAAAGATGTCGAGTAAACAAATTTTCCTAATCTTTCTGTTCAAGCGCCATCTAC | 0.327
GATGATTGTTCTCCCAGCTGATGAATTTTAGTGGTCGAGTAAACAAATTTTCCTAATCTTTCTGTTCAAGCGCCATCTAC | 0.466
GATGATTGTTCTCCCAGCTGATGAATTTAAGCGTTCGAGTAAACAAATTTTCCTAATCTTTCTGTTCAAGCGCCATCTAC | 1.3
GATGATTGTTCTCCCAGCTGATGAATTATCAGGATCGAGTAAACAAATTTTCCTAATCTTTCTGTTCAAGCGCCATCTAC | 0.217
GATGATTGTTCTCCCAGCTGATGAATTGAAAGCGTCGAGTAAACAAATTTTCCTAATCTTTCTGTTCAAGCGCCATCTAC | 0.385
GATGATTGTTCTCCCAGCTGATGAATTAGGATCCTCGAGTAAACAAATTTTCCTAATCTTTCTGTTCAAGCGCCATCTAC | 0.342
GATGATTGTTCTCCCAGCTGATGAATTCGGATGGTCGAGTAAACAAATTTTCCTAATCTTTCTGTTCAAGCGCCATCTAC | 0.433
GATGATTGTTCTCCCAGCTGATGAATTTTCCTTGTCGAGTAAACAAATTTTCCTAATCTTTCTGTTCAAGCGCCATCTAC | 0.276
GATGATTGTTCTCCCAGCTGATGAATTAGCATGCTCGAGTAAACAAATTTTCCTAATCTTTCTGTTCAAGCGCCATCTAC | 1.67
GATGATTGTTCTCCCAGCTGATGAATTTTAATCGTCGAGTAAACAAATTTTCCTAATCTTTCTGTTCAAGCGCCATCTAC | 0.426
GATGATTGTTCTCCCAGCTGATGAATTCGCCGACTCGAGTAAACAAATTTTCCTAATCTTTCTGTTCAAGCGCCATCTAC | 0.246
GATGATTGTTCTCCCAGCTGATGAATTTGGAGAATCGAGTAAACAAATTTTCCTAATCTTTCTGTTCAAGCGCCATCTAC | 0.244
GATGATTGTTCTCCCAGCTGATGAATTATATACTTCGAGTAAACAAATTTTCCTAATCTTTCTGTTCAAGCGCCATCTAC | 0.724
GATGATTGTTCTCCCAGCTGATGAATTCGTTCTGTCGAGTAAACAAATTTTCCTAATCTTTCTGTTCAAGCGCCATCTAC | 0.346

Sequence | binding signal (RPM ratio (pull-down/input))
GATGATTGTTCTCCCAGCTGATGAATTCACATAGTCGAGTAAACAAATTTTCCTAATCTTTCTGTTCAAGCGCCATCTAC | 0.335
GATGATTGTTCTCCCAGCTGATGAATTTGTCATTTCGAGTAAACAAATTTTCCTAATCTTTCTGTTCAAGCGCCATCTAC | 5.68
GATGATTGTTCTCCCAGCTGATGAATTTCTAGTTTCGAGTAAACAAATTTTCCTAATCTTTCTGTTCAAGCGCCATCTAC | 0.285
GATGATTGTTCTCCCAGCTGATGAATTGGAAGTCTCGAGTAAACAAATTTTCCTAATCTTTCTGTTCAAGCGCCATCTAC | 0.343
GATGATTGTTCTCCCAGCTGATGAATTTTGACGATCGAGTAAACAAATTTTCCTAATCTTTCTGTTCAAGCGCCATCTAC | 0.34
GATGATTGTTCTCCCAGCTGATGAATTAACGAGTTCGAGTAAACAAATTTTCCTAATCTTTCTGTTCAAGCGCCATCTAC | 0.361
GATGATTGTTCTCCCAGCTGATGAATTGTACCTGTCGAGTAAACAAATTTTCCTAATCTTTCTGTTCAAGCGCCATCTAC | 0.413
GATGATTGTTCTCCCAGCTGATGAATTGAGTACTTCGAGTAAACAAATTTTCCTAATCTTTCTGTTCAAGCGCCATCTAC | 0.524
GATGATTGTTCTCCCAGCTGATGAATTTTTTCGATCGAGTAAACAAATTTTCCTAATCTTTCTGTTCAAGCGCCATCTAC | 0.217
GATGATTGTTCTCCCAGCTGATGAATTAAGCACTTCGAGTAAACAAATTTTCCTAATCTTTCTGTTCAAGCGCCATCTAC | 0.716
GATGATTGTTCTCCCAGCTGATGAATTATCTGGTTCGAGTAAACAAATTTTCCTAATCTTTCTGTTCAAGCGCCATCTAC | 0.309
GATGATTGTTCTCCCAGCTGATGAATTCACAGCATCGAGTAAACAAATTTTCCTAATCTTTCTGTTCAAGCGCCATCTAC | 0.801
GATGATTGTTCTCCCAGCTGATGAATTGAAGATATCGAGTAAACAAATTTTCCTAATCTTTCTGTTCAAGCGCCATCTAC | 0.353
GATGATTGTTCTCCCAGCTGATGAATTCTATTGCTCGAGTAAACAAATTTTCCTAATCTTTCTGTTCAAGCGCCATCTAC | 1.47
GATGATTGTTCTCCCAGCTGATGAATTAGTATGCTCGAGTAAACAAATTTTCCTAATCTTTCTGTTCAAGCGCCATCTAC | 3.14
GATGATTGTTCTCCCAGCTGATGAATTGTTGTACTCGAGTAAACAAATTTTCCTAATCTTTCTGTTCAAGCGCCATCTAC | 3.07
GATGATTGTTCTCCCAGCTGATGAATTACTCTGGTCGAGTAAACAAATTTTCCTAATCTTTCTGTTCAAGCGCCATCTAC | 0.228
GATGATTGTTCTCCCAGCTGATGAATTCACACCATCGAGTAAACAAATTTTCCTAATCTTTCTGTTCAAGCGCCATCTAC | 0.505
GATGATTGTTCTCCCAGCTGATGAATTACCTAGATCGAGTAAACAAATTTTCCTAATCTTTCTGTTCAAGCGCCATCTAC | 0.247
GATGATTGTTCTCCCAGCTGATGAATTAAGTACATCGAGTAAACAAATTTTCCTAATCTTTCTGTTCAAGCGCCATCTAC | 0.564
GATGATTGTTCTCCCAGCTGATGAATTCGGCACATCGAGTAAACAAATTTTCCTAATCTTTCTGTTCAAGCGCCATCTAC | 0.778
